Results published in paper PMC4336329 (PLoS ONE, 2015).
Hit rate of the full screen: of about 310,000 compounds, about 2,200 (0.71%) showed an effect of 50% or more. The effect is printed as a negative number. The list shows a part of the results.

Target: human ether-à-go-go-related gene (hERG) potassium channel (human, UniProt Q12809)
Test: primary screen, population patch clamp on CHO cells stably expressing hERG

Sequence of human ether-à-go-go-related gene (hERG) potassium channel (Q12809 whole entry, looked up): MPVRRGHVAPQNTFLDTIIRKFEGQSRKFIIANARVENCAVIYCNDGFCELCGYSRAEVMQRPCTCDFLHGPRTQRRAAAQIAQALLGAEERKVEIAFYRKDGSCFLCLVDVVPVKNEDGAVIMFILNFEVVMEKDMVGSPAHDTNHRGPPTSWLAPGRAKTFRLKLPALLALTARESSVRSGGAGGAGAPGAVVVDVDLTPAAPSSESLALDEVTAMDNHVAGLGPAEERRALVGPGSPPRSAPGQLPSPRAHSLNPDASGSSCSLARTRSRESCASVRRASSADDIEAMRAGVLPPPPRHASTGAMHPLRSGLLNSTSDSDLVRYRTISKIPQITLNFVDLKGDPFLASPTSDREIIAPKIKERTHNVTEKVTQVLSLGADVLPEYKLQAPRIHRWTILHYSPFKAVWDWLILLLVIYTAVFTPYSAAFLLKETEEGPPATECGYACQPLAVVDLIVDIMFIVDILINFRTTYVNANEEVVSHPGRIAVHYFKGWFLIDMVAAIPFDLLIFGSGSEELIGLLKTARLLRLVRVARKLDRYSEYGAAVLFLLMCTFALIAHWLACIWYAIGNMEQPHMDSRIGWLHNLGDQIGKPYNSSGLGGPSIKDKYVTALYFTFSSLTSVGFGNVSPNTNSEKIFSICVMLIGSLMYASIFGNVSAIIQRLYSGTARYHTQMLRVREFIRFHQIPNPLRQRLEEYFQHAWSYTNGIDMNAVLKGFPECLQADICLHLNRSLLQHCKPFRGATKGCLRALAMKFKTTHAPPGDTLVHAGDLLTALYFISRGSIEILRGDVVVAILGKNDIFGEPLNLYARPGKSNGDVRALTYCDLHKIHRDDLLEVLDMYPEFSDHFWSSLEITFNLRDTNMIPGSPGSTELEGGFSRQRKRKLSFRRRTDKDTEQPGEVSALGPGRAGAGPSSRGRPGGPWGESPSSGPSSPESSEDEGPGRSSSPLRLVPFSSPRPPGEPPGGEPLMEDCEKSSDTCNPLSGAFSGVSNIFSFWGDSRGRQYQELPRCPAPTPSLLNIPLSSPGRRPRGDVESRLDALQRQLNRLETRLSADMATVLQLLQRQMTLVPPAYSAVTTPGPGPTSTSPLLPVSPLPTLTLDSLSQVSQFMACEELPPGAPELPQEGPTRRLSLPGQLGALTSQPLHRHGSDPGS

First: CCCCNC(=O)CN(c1ccc(Cl)c(Cl)c1)S(C)(=O)=O
Second: CCCCOC(=O)n1ccc(C(=O)Nc2ccccc2OC)n1
The “hERG current change (%, negative = inhibition) at 1uM” value of the first is higher: 7.06% for the first, 1.32% for the second.

Going from `O=C(Cc1ccc(-n2c(=O)[nH]c3ccsc3c2=O)cc1)N1CCN(c2ccc(Cl)cc2)CC1` to `O=C(O)c1ccc(COc2ccc3ccccc3c2/C=C2/NC(=O)N(c3ccccc3)C2=O)cc1`, the “hERG current change (%, negative = inhibition) at 1uM” value falls from 10.6% to -3.53%.

Going from `CCC(NC(=O)c1cccc(Cn2nc(C)c([N+](=O)[O-])c2C)c1)c1ccc(C(C)C)cc1` (centres unmarked) to `Cc1nn(-c2ccccc2)c(N)c1Sc1cccc([N+](=O)[O-])c1.Cl`, the “hERG current change (%, negative = inhibition) at 1uM” value rises from -3.03% to 6.21%.

Going from `COc1ccc2nc(NC(=O)c3cc(S(=O)(=O)N4CCOCC4)ccc3C)sc2c1` to `CCOC(=O)N1CCN(S(=O)(=O)c2ccc(OC)c3ccccc23)CC1`, the “hERG current change (%, negative = inhibition) at 1uM” value falls from 10.2% to 8.95%.

Going from `CCC1C(=O)CC(c2ccco2)NC1c1ccco1` (centres unmarked) to `CCOC(=O)c1sc(NC(=O)c2ccco2)nc1-c1ccccc1`, the “hERG current change (%, negative = inhibition) at 1uM” value rises from 6.78% to 12.2%.

Compared with `CCOc1ccccc1NC(=O)COC(=O)Cc1cccs1`, `Cc1cccc(NC(=O)Cn2nnc(C(=O)NCc3cccs3)c2N)c1C` is higher in “hERG current change (%, negative = inhibition) at 1uM” value: 14.6% for the first, 15.8% for the second.

First: CC(Oc1ccc(Cl)cc1Cl)c1nc(-c2ccc(NC(=O)c3ccncc3)cc2)no1 (centres unmarked)
Second: O=C(O)c1ccc(Nc2nc(-c3ccccc3)c3ccccc3n2)cc1
The “hERG current change (%, negative = inhibition) at 1uM” value of the first is lower: 6.17% for the first, 14.8% for the second.

Going from `CCOC(=O)C1(Cc2ccccc2C)CCCN(C(=O)c2ccc3nccnc3c2)C1` (centres unmarked) to `O=C(NCc1ccco1)C(c1ccccc1)N(CC1CCCO1)C(=O)Cn1nnc2ccccc21` (centres unmarked), the “hERG current change (%, negative = inhibition) at 1uM” value falls from 9.97% to -2.06%.

First: Cc1ccc(S(=O)(=O)Nc2c(O)c3ccccc3oc2=O)cc1
Second: Cc1ccc(S(=O)(=O)N/N=C/c2cccc([N+](=O)[O-])c2)cc1
The “hERG current change (%, negative = inhibition) at 1uM” value of the first is lower: 9.69% for the first, 17.4% for the second.

Compared with `CCCCN(C(=O)CCNC(=O)NC12CC3CC(CC(C3)C1)C2)c1c(N)n(CCCC)c(=O)[nH]c1=O`, `CCN(C(=O)COC(=O)/C=C/c1cccc([N+](=O)[O-])c1)c1c(N)n(Cc2ccccc2)c(=O)[nH]c1=O` is lower in “hERG current change (%, negative = inhibition) at 1uM” value: 10.4% for the first, 9.64% for the second.

Compared with `O=S(=O)(NCc1ccccc1)c1ccc(S(=O)(=O)N(Cc2ccccn2)C2CCCC2)cc1`, `COC(=O)CCN(C1CCCCC1)S(=O)(=O)c1ccc(S(=O)(=O)NC2CCCCC2)cc1` is lower in “hERG current change (%, negative = inhibition) at 1uM” value: 8.51% for the first, 2.04% for the second.

Going from `CC1CC(C)CN(CCCNC(=O)C2CCN(S(=O)(=O)N3CCCCC3)CC2)C1` (centres unmarked) to `Cc1cccc(OCCCC(=O)Nc2ccc(N3CCCCC3)cc2)c1`, the “hERG current change (%, negative = inhibition) at 1uM” value rises from 3.92% to 6.37%.

First: O=C(O)COc1ccc(/C=N/n2cnc3scc(-c4cccs4)c3c2=O)cc1
Second: COc1ccc(-c2nnc(SCC(=O)NC(=O)NCc3ccccc3)o2)cc1
The “hERG current change (%, negative = inhibition) at 1uM” value of the first is lower: 0.476% for the first, 5.21% for the second.

Compared with `CC(=O)c1ccc(OCc2cc([N+](=O)[O-])cc3c2OCOC3)cc1`, `COc1ccc(N2CCN(C(CNC(=O)CC(C)(C)C)c3ccc4c(c3)OCO4)CC2)cc1` (centres unmarked) is lower in “hERG current change (%, negative = inhibition) at 1uM” value: 4.68% for the first, 0.587% for the second.

First: O=C(Nc1cccc(C(F)(F)F)c1)c1n[nH]c(Cn2cncn2)n1
Second: CC(=O)N(C)c1ccc(NC(=O)C(F)(F)F)cc1
The “hERG current change (%, negative = inhibition) at 1uM” value of the first is higher: 7.57% for the first, 1.19% for the second.

Going from `Cc1nc(NS(=O)(=O)c2ccccc2C)c2c3c(sc2n1)CCC3` to `Cc1cccc(NC(=O)CCS(=O)(=O)c2cccc3nonc23)c1C`, the “hERG current change (%, negative = inhibition) at 1uM” value rises from -5.99% to 12.4%.

First: N#Cc1c(C(F)(F)F)cc(-c2ccccc2)nc1SCCN1CCOCC1
Second: Brc1cc2c(cc1CN1CCN(c3ccccc3)CC1)OCCO2
The “hERG current change (%, negative = inhibition) at 1uM” value of the first is higher: -0.0666% for the first, -1.98% for the second.

Going from `O=Cc1cc(N=Nc2cccc(C(=O)O)c2)ccc1O` to `CC(=O)Nc1ccc(C(=O)N/C(=C/c2ccccc2)C(=O)Nc2cccc(C(=O)O)c2)cc1`, the “hERG current change (%, negative = inhibition) at 1uM” value rises from 8.91% to 12.3%.

First: Cc1ccc(CNC(=O)C2CCC(CNc3nc(=S)[nH]c4ccccc34)CC2)cc1 (centres unmarked)
Second: C=CCn1c(SCC(=O)N2CCCC2)nc2c([nH]c3ccccc32)c1=O
The “hERG current change (%, negative = inhibition) at 1uM” value of the first is higher: 9.64% for the first, 5.21% for the second.

Compared with `COCCCNC(=S)N(CCN(C)C)Cc1cc2cc3c(cc2[nH]c1=O)OCCO3`, `O=C1N=C(N2CCOCC2)S/C1=C1\C(=O)N(Cc2ccccc2)c2ccccc21` is lower in “hERG current change (%, negative = inhibition) at 1uM” value: 17.2% for the first, -0.171% for the second.

First: COc1cccc(OC)c1C(=O)Nc1sc2c(c1C(N)=O)CCN(Cc1ccccc1)C2.Cl
Second: CC(=O)c1c(Nc2ccccc2)sc(C(=O)c2ccccc2)c1C
The “hERG current change (%, negative = inhibition) at 1uM” value of the first is higher: 7.25% for the first, -1.65% for the second.

Compared with `Cc1onc(-c2ccccc2Cl)c1C(=O)Nc1nnc(C(C)C)s1`, `COC(=O)c1ccc(C(=O)OC)c(NC(=O)CSc2nnc(-c3ccccc3Cl)o2)c1` is lower in “hERG current change (%, negative = inhibition) at 1uM” value: 10.1% for the first, -3.27% for the second.

Compared with `COC(=O)CSc1nnc(CNc2nc(-c3ccccc3)cs2)n1C`, `N#Cc1ccccc1CSc1ncccc1C(=O)O` is higher in “hERG current change (%, negative = inhibition) at 1uM” value: 14.7% for the first, 18% for the second.

Going from `Cc1cccc(N/C=C/C(=C(C#N)C#N)N(C)C)c1` to `C/C(=N\NC(=O)c1cccs1)c1c(O)cc(C)oc1=O`, the “hERG current change (%, negative = inhibition) at 1uM” value rises from -13.8% to 17.3%.

First: COc1ccc(CNc2ccc(S(N)(=O)=O)cc2)c(OC)c1OC
Second: CCOC(=O)c1ccc(C(=O)NNC(=O)C2CC=CCC2)cc1 (centres unmarked)
The “hERG current change (%, negative = inhibition) at 1uM” value of the first is lower: 4.7% for the first, 17.9% for the second.

Going from `O=C1N[C@@H](Cc2ccccc2)C(=O)N2[C@H]1C[C@H]1c3ccccc3N(OOSc3ccccc3)[C@H]12` to `Cc1cc(C(=O)NN=C2C3CC4CC(C3)CC2C4)c2ccccc2n1`, the “hERG current change (%, negative = inhibition) at 1uM” value rises from 3.93% to 21.7%.

For `C=C(C)C(=O)OCC(C)C`, the “hERG current change (%, negative = inhibition) at 1uM” value was 11.6%.
